From the supplement of paper PMC12217912 come the findings set out here.

B1: TEV protease; numbered along this chain (parent)
chain: MGESLFKGPRDYNPISSSICHLTNESDGHTTSLYGIGFGPFIITNKHLFRRNNGTLVVQSLHGVFKVKDTTTLQQHLVDGRDMIIIRMPKDFPPFPQKLKFREPQREERICLVTTNFQTKSMSSMVSDTSCTFPSGDGIFWKHWIQTKDGQCGSPLVSTRDGFIVGIHSASNFTNTNNYFTSVPKNFMELLTNQEAQQWVSGWRLNADSVLWGGHKVFMVKPEEPFQPVKEATQL

Some of the results follow. The full chains were built here from the parent and the listed change. Values near 0.05 are background.
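Further: Bxb1 expression induced with 0.2% (w/v) L-rhamnose at OD600 near 0.5, cultures sampled hourly, flipped fraction per protease–substrate barcode pair counted by paired-end Illumina sequencing.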

In this experiment the parent is B1. Description: raw area under fraction-flipped curve 0-4 h after induction (AUC4h, not background-subtracted), DNA-recorder readout of cleavage of the substrate (dimensionless); higher = more cleavage of the substrate by the protease variant. The following applies: temperature: 34 °C; time window: 0-4 h after rhamnose induction. The method, then: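 In vivo DNA recorder in E. coli TOP10(DE3) ΔrhaA at 34 °C. Each TEVp single-site mutant (parent TEVp 0) is paired with a single-site variant of the 7-mer TEVs (canonical ENLYFQ|S). The substrate sits between flexible linkers in a Bxb1-sfGFP-TEVs-SsrA fusion, so cleavage stabilises Bxb1 and speeds flipping of a recombination array, read by NGS. The value is the raw area under the fraction-flipped curve over 0-4 h after rhamnose induction (AUC4h), with ≥20 reads per time point. It is not background-subtracted; inactive controls average about 0.047.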
Regarding MGESLFKGPRDYNPISSSICHLTNESDGHTTSLYGIGFGPFIITNKHLFRRNNGTLVVQSLHGVFKVKDTTTLQQHLVDGRDMIIIRMPKDFPPFPQKLKFREPQREERICLVTTNFQTKSMSSMVSDTSCTFPSGDGIFWKHWIQTKDGQCGSPLVSTRDGFIVGIHSASNFTNTNNYFTSVPKNFMELLTNQEAQQWVSGWRLNADKVLWGGHKVFMVKPEEPFQPVKEATQL [S209K], the “area with substrate ENLYFDS” value turned out to be 0.0748, the “area with substrate ENLYFGS” value was 0.0323, the “area with substrate ENLYFIS” value was 0.0488 and the “area with substrate ENLYFMS” value is 0.0671. Further, the “area with substrate ENLYFRS” value was 0.0826, the “area with substrate ENLYFTS” value amounted to 0.0662 and the “area with substrate ENLYFYS” value worked out at 0.0484.

As for MGESLFKGPRDYNPISSSICHLTNESDGHTTSLYGIGFGPFIITNKHLFRRNNGTLVVQSLHGVFKVKDTTTLQQHLVDGRDMIIIRMPKDFPPFPQKLKFREPQREERICLVTTNFQTKSMSSMVSDTSCTFPSGDGIFWKHWIQTKDGQCGSPLVSTRDGFIVGIHSASNFTNTNNYFTSVPKNFMELLTNQEAQQWVSGWRLNADRVLWGGHKVFMVKPEEPFQPVKEATQL [S209R], the “area with substrate ENLYFDS” value was found to be 0.0369, the “area with substrate ENLYFHS” value stood at 0.0669, the “area with substrate ENLYFIS” value was found to be 0.0531 and the “area with substrate ENLYFLS” value was 0.0559. Also, the “area with substrate ENLYFMS” value was determined as 0.0539, the “area with substrate ENLYFNS” value came out at 0.0514, the “area with substrate ENLYFPS” value was 0.0441 and the “area with substrate ENLYFRS” value was 0.0475. The “area with substrate ENLYFTS” value came out at 0.0541 and the “area with substrate ENLYFVS” value came to 0.0577.

For MGESLFKGPRDYNPISSSICHLTNESDGHTTSLYGIGFGPFIITNKHLFRRNNGTLVVQSLHGVFKVKDTTTLQQHLVDGRDMIIIRMPKDFPVFPQKLKFREPQREERICLVTTNFQTKSMSSMVSDTSCTFPSGDGIFWKHWIQTKDGQCGSPLVSTRDGFIVGIHSASNFTNTNNYFTSVPKNFMELLTNQEAQQWVSGWRLNADSVLWGGHKVFMVKPEEPFQPVKEATQL [P94V], the “area with substrate ENLYFDS” value was found to be 0.0582, the “area with substrate ENLYFES” value came to 0.0943, the “area with substrate ENLYFFS” value came to 0.0748 and the “area with substrate ENLYFGS” value came to 0.0619. For the same variant, the “area with substrate ENLYFIS” value came out at 0.0449, the “area with substrate ENLYFMS” value came to 0.0708, the “area with substrate ENLYFNS” value came out at 0.0796 and the “area with substrate ENLYFPS” value was 0.0446. Also, the “area with substrate ENLYFSS” value was 0.0908, the “area with substrate ENLYFTS” value was determined as 0.0125, the “area with substrate ENLYFWS” value came to 0.047 and the “area with substrate ENLYFYS” value came out at 0.0587.

On to MGESLFKGPRDYNPISSSICHLTNESDGHTTSLYGIGFGPFIITNKHLFRRNNGTLVVQSLHGVFKVKDTTTLQQHLVDGRDMIIIRMPKDFPPFPQKLKFREPQREERICLVTTNFQTKSMSSMVSDTSCTFPSGDGIFWKHWIQTKDGQCGSPLVSTRDGFIVGIHSASNFTNTNNYFTSVPKNFMELLTNQEAQQWVSGWRLNADSVLWGGKKVFMVKPEEPFQPVKEATQL [H215K], for which the “area with substrate ENLYFDS” value stood at 0.0705, the “area with substrate ENLYFES” value was determined as 0.0625, the “area with substrate ENLYFFS” value is 0.0667 and the “area with substrate ENLYFHS” value was 0.0721. The “area with substrate ENLYFIS” value worked out at 0.0564, the “area with substrate ENLYFKS” value came to 0.0881, the “area with substrate ENLYFMS” value was found to be 0.0487 and the “area with substrate ENLYFNS” value was 0.0619. Also, the “area with substrate ENLYFPS” value turned out to be 0.0573, the “area with substrate ENLYFRS” value worked out at 0.0566, the “area with substrate ENLYFTS” value was found to be 0.0564 and the “area with substrate ENLYFVS” value amounted to 0.0549. In addition, the “area with substrate ENLYFWS” value stood at 0.0533 and the “area with substrate ENLYFYS” value amounted to 0.0315.

With MGESLFKGPRDYNPISSSICHLTNESDGHTTSLYGIGFGPFIITNKHLFRRNNGTLVVQSLHGVFKVKDTTTLQQHLVDGRDMIIIRMPKDFPPFPQKLKFREPQREERICLVTTNFQTKSMSSMVSDTSCTFPSGDGIFWKHWIQTKDGQCGSPLVSTRDGPIVGIHSASNFTNTNNYFTSVPKNFMELLTNQEAQQWVSGWRLNADSVLWGGHKVFMVKPEEPFQPVKEATQL [F163P], the “area with substrate ENLYFES” value came to 0.0554, the “area with substrate ENLYFGS” value is 0.0696, the “area with substrate ENLYFKS” value was determined as 0.0587 and the “area with substrate ENLYFMS” value was found to be 0.0622. Further, the “area with substrate ENLYFNS” value was 0.0614, the “area with substrate ENLYFTS” value turned out to be 0.0455, the “area with substrate ENLYFWS” value came to 0.0658 and the “area with substrate ENLYFYS” value was 0.0544.

Turning to MGESLFKGPRDYNPISSSICHLTNESDGHTTSLYGIGFGPFIITNKHLFRRNNGTLVVQSLHGVFKVKDTTTLQQHLVDGRDMVIIRMPKDFPPFPQKLKFREPQREERICLVTTNFQTKSMSSMVSDTSCTFPSGDGIFWKHWIQTKDGQCGSPLVSTRDGFIVGIHSASNFTNTNNYFTSVPKNFMELLTNQEAQQWVSGWRLNADSVLWGGHKVFMVKPEEPFQPVKEATQL [I84V], the “area with substrate ENLYFDS” value was determined as 0.0661, the “area with substrate ENLYFES” value worked out at 0.0639, the “area with substrate ENLYFFS” value worked out at 0.0641 and the “area with substrate ENLYFIS” value was 0.0512. Besides, the “area with substrate ENLYFKS” value was determined as 0.0577, the “area with substrate ENLYFMS” value stood at 0.0577, the “area with substrate ENLYFPS” value was 0.0612 and the “area with substrate ENLYFRS” value turned out to be 0.0574. The “area with substrate ENLYFSS” value turned out to be 0.0695, the “area with substrate ENLYFTS” value stood at 0.0532 and the “area with substrate ENLYFVS” value came to 0.0616.

As for MGESLFKGPRDYNPISSSICHLTNESDGHTTSLYGIGFGPFIITNKHLFRRNNGTLVVQSLHGVFKVKDTTTLQQHLVDGRDMIIIRMPKDFPPFPQKLKFREPQREERICLVTTNFQTKSMSSMVSDTSCTFPSGDPIFWKHWIQTKDGQCGSPLVSTRDGFIVGIHSASNFTNTNNYFTSVPKNFMELLTNQEAQQWVSGWRLNADSVLWGGHKVFMVKPEEPFQPVKEATQL [G138P], the “area with substrate ENLYFES” value worked out at 0.0584, the “area with substrate ENLYFPS” value is 0.0586, the “area with substrate ENLYFRS” value turned out to be 0.0564 and the “area with substrate ENLYFTS” value was 0.0658.

As for MGESLFKGPRDYNPISSSICHLTNESDGHTTSLYGIGFGPFIITNKHLFRRNNGTLVVQSLHGVFKVKDTTTLQQHLVDGRDMIIIRMPKDFPPFPQKLKFREPQREERICLVTTNFQTKSMSSMVSDTSCTFPSGDGIFWKHWIQTKDGQCGSPLVSTRDGFIVKIHSASNFTNTNNYFTSVPKNFMELLTNQEAQQWVSGWRLNADSVLWGGHKVFMVKPEEPFQPVKEATQL [G166K], the “area with substrate ENLYFDS” value was 0.0532, the “area with substrate ENLYFIS” value turned out to be 0.0522 and the “area with substrate ENLYFPS” value was found to be 0.0448.

Take MGESLFKGPRDYNPISSSICHLTNESDGHTTSLYGIGFGPFIITNKHLFRRNNGTLVVQSLHGVFKVKDTTTLQQHLVDGRDMIIIRMPKDFPPFPQKLKFREPQREERICLVTTNFQTKSMSSMVSDTSCTFPSGDGIFWKHWIQTKIGQCGSPLVSTRDGFIVGIHSASNFTNTNNYFTSVPKNFMELLTNQEAQQWVSGWRLNADSVLWGGHKVFMVKPEEPFQPVKEATQL [D149I]: the “area with substrate ENLYFDS” value turned out to be 0.0663, the “area with substrate ENLYFFS” value amounted to 0.0478, the “area with substrate ENLYFGS” value was found to be 0.0596 and the “area with substrate ENLYFIS” value came to 0.0567. Further, the “area with substrate ENLYFMS” value was found to be 0.0643, the “area with substrate ENLYFNS” value turned out to be 0.055, the “area with substrate ENLYFPS” value was 0.0584 and the “area with substrate ENLYFSS” value was found to be 0.0539. Also, the “area with substrate ENLYFTS” value was found to be 0.0517, the “area with substrate ENLYFVS” value stood at 0.0598 and the “area with substrate ENLYFYS” value was determined as 0.05.

Turning to MGESLFKGPRDYNPISSSICHLTNESDGHTTSLYGIGFGPFIITNKHLFRRNNGTLVVQSLHGVFKVKFTTTLQQHLVDGRDMIIIRMPKDFPPFPQKLKFREPQREERICLVTTNFQTKSMSSMVSDTSCTFPSGDGIFWKHWIQTKDGQCGSPLVSTRDGFIVGIHSASNFTNTNNYFTSVPKNFMELLTNQEAQQWVSGWRLNADSVLWGGHKVFMVKPEEPFQPVKEATQL [D69F], the “area with substrate ENLYFES” value came to 0.0601, the “area with substrate ENLYFFS” value came out at 0.0848, the “area with substrate ENLYFIS” value was 0.0601 and the “area with substrate ENLYFMS” value stood at 0.0682. In addition, the “area with substrate ENLYFTS” value turned out to be 0.0505, the “area with substrate ENLYFWS” value was determined as 0.0542 and the “area with substrate ENLYFYS” value came to 0.059.
